# Test results taken from PubChem BioAssay (Tox21).
# “And” between values parts separate entries of the source, which are not always exact repeats. Equal values may be shown once. The shares of active, inactive and inconclusive entries below differ from those in the screen. A potency beside an inconclusive call is a rough fit, not a confirmed value. Some compounds were tested as several samples or in several runs, with calls that do not always agree. The source made the active and inactive calls. Calls come from the whole dose curve; as a rule, active = well fitted cell-killing curve with a large enough effect in the repeat runs; inconclusive = weak or mixed curves; inactive = flat fitted curve, though single readings scatter.
# Assay: qHTS assay to identify small molecule antagonists of the TGF-beta/Smad signaling pathway - cell viability counter screen (AID 1346824); note: nearly all actives have a fitted effect of over 50% in size
# Conditions: SBE-bla HEK293T viability, CellTiter-Glo luminescence; series mostly up to 35.3 µM; viability change, negative = cytotoxic: at the top concentration
# Excerpt: U.S. Tox21 Program National Center for Advancing Translational Sciences [NCATS] NIH Chemical Genomics Center [NCGC] U.S. Environmental Protection Agency [EPA] National Institutes of Environmental Health Sciences [NIEHS] National Toxicology Program [NTP] U.S. Food and Drug Administration [FDA] Tox21 Assay Overview: Transforming growth factor beta (TGF-beta) superfamily consists of a large number of structurally related dimeric proteins that act as hormones or local mediators in regulating a wide range of biological functions. This superfamily includes TGF-betas themselves, the bone morphogenetic proteins (BMPs) and the activins. These ligands induce oligomerization of serine/threonine receptor kinases and phosphorylate the cytoplasmic signaling molecules of Smad protein family. CellSensor SBE-bla HEK 293T cell line (Life Technologies, Carlsbad, CA), responsive to TGF-beta was used to screen Tox21 10K compound library for identification of agonists/antagonists of the Smad signaling pathway. This cell line contains a beta-lactamase reporter gene under control of the Smad binding element (SBE) stably integrated into HEK 293T cells. Also cytotoxicity of the compounds was tested in parallel by measuring the cell viability using CellTiter-Glo assay system in the same wells.
# Tox21 Assay Protocol Summary: SBE-bla HEK 293T cells were dispensed at 4,000/well in 5 uL of assay medium into black wall/clear-bottom 1536-well plates using a Multidrop Combi (ThermoFisher Scientific, Waltham, MA) dispenser. After the assay plates were incubated at 37 C and 5% CO2 for an overnight, 23 nL of compounds dissolved in DMSO, positive controls or DMSO only was transferred to the assay plate by a Pintool station (Kalypsys, San Diego, CA). Compound transfer was followed by the addition of 1 uL of 0.25 ng/mL TGF-beta1 or assay buffer using two separate tips of Flying Reagent Dispenser (FRD, Aurora Discovery, San Diego, CA). The assay plates were incubated at 37 C and 5% CO2 for 5 hr. One uL of LiveBLAzer B/G FRET substrate (Life Technologies) was added using a Flying Reagent Dispenser (FRD, Aurora Discovery, San Diego, CA) and the plates were incubated at room temperature for 2 hr. Fluorescence intensity (405 nm excitation, 460 nm and 530 nm emissions) was measured using an Envision plate reader (PerkinElmer, Shelton, CT). For cytotoxicity read, 4 uL of CellTiter-Glo reagent (Promega Corporation, Madison, WI) was added to each well of the assay plates using FRD. After 30 min incubation at room temperature, the luminescence intensity was measured using ViewLux plate reader (PerkinElmer).
# % is set by controls: 0 for no effect and ±100 for the full control effect; potency is the fitted concentration of half-maximal effect; tags give direction and shape of the fitted curve.
Structure (SMILES),"viability change, negative = cytotoxic",Potency
Clc1nc2ccccc2nc1Cl,inactive: 12.8% [at 76.8 µM],–
CC1COC(=O)O1 (stereo not given),–,"inconclusive: 5.67 µM [cytotoxic, single point]"
NC(=Nc1ccccc1)Nc1ccccc1,–,"inconclusive: 0.436 µM [cytotoxic, full curve, poor fit]"
NC(=NCCCCCCN=C(N)/N=C(\N)Nc1ccc(Cl)cc1)/N=C(\N)Nc1ccc(Cl)cc1,–,"inconclusive: 54.4 µM [cytotoxic, single point] and inconclusive: 54.6 µM [cytotoxic, single point]"
Cc1[nH]nc2c1N=C(c1ccccc1Cl)c1cc([N+](=O)[O-])ccc1N2,–,"inconclusive: 69.2 µM [cytotoxic, partial curve, poor fit]"
Cc1c(O)cccc1C(=O)N[C@@H](CSc1ccccc1)[C@H](O)CN1C[C@H]2CCCC[C@H]2C[C@H]1C(=O)NC(C)(C)C,–,"inconclusive: 42.5 µM [cytotoxic, partial curve] and inconclusive: 23.9 µM [cytotoxic, single point]"
COc1cc(C(=O)NCCCCCC(=O)O)cc(OC)c1OC,inactive: 17.7%,–
CCCCCCCCC=O,–,"inconclusive: 12.3 µM [cytotoxic, partial curve, poor fit]"
Cc1cc(=O)oc2cc(O)ccc12,–,"inconclusive: 4.9 µM [cytotoxic, single point]"
O=C1c2ccccc2C(=O)C1(O)O,–,"inconclusive: 55.3 µM [cytotoxic, single point]"
CCN(Cc1cccc(S(=O)(=O)O)c1)c1ccc(C(=C2C=CC(=[N+](CC)Cc3cccc(S(=O)(=O)O)c3)C=C2)c2ccccc2S(=O)(=O)[O-])cc1,–,"inconclusive: 24.6 µM [cytotoxic, partial curve]"
Cc1c(C2(c3cc(Br)c(O)c(Br)c3C)OS(=O)(=O)c3ccccc32)cc(Br)c(O)c1Br,–,"inconclusive: 23.8 µM [cytotoxic, partial curve, poor fit]"
Cc1c(OCC(F)(F)F)ccnc1CS(=O)c1nc2ccccc2[nH]1 (stereo not given),–,"inconclusive: 26.8 µM [cytotoxic, single point]"
C1CCC(C(CC2CCCCN2)C2CCCCC2)CC1 (stereo not given),–,active: 26.8 µM
CC[C@H]1CN2CCc3cc(OC)c(OC)cc3[C@@H]2C[C@@H]1C[C@H]1NCCc2cc(OC)c(OC)cc21,–,inactive
S=c1nc[nH]c2nc[nH]c12,–,"inconclusive: 2.69 µM [cytotoxic, full curve] and inconclusive: 9.52 µM [cytotoxic, partial curve]"
CCN(CC)CCOc1ccc(C(O)(Cc2ccc(Cl)cc2)c2ccc(C)cc2)cc1 (stereo not given),–,inconclusive: 23.9 µM [cytotoxic]
O=C(OCc1ccccc1)c1ccc(O)cc1,–,inactive
CCCCCCCCCc1ccc(OCCOCCO)cc1,–,active: 18.3 µM
CNc1ccc(O)cc1,–,inconclusive: 48.9 µM [cytotoxic]

Structure (SMILES),"viability change, negative = cytotoxic",Potency
NC(N)=NN=C(/C=C/c1ccc([N+](=O)[O-])o1)/C=C/c1ccc([N+](=O)[O-])o1,–,active: 23.9 µM
Cc1ccc(N)cc1O,–,"inconclusive: 30.9 µM [rising, partial curve, poor fit]"
O=C1OC2(c3cc(Br)c(O)c(Br)c3Oc3c2cc(Br)c(O)c3Br)c2c(Cl)c(Cl)c(Cl)c(Cl)c21,–,"inconclusive: 33.4 µM [cytotoxic, single point]"
CCOC(=O)CC,inactive: -10.5% [at 76.8 µM],–
CCCCCCC/C=C/C=O,–,"inconclusive: 1.38 µM [cytotoxic, full curve, poor fit]"
CN(Cc1cnc2nc(N)nc(N)c2n1)c1ccc(C(=O)N[C@@H](CCC(=O)O)C(=O)O)cc1,–,"inconclusive: 219 nM [cytotoxic, full curve] and inconclusive: 53.5 nM [cytotoxic, full curve]"
CCCCCCCCCCCC[N+](C)(C)CCCCCCCCCCCC,–,active: 43.6 µM
O=C(Oc1ccccc1)c1cccc(C(=O)Oc2ccccc2)c1,–,"inconclusive: 23.1 µM [cytotoxic, partial curve]"
O=c1[nH]sc2cc(Cl)ccc12,inactive: -9.4%,–
CC(C)OC(=O)c1cc(C(=O)OC(C)C)cc([N+](=O)[O-])c1,–,"inconclusive: 50.1 µM [cytotoxic, single point]"
CCCCC=O,inactive: 1.09% [at 76.8 µM],–
Nc1ncnc2nc[nH]c12,–,inactive
OCCOCCN1CCN(C(c2ccccc2)c2ccc(Cl)cc2)CC1 (stereo not given),–,"inconclusive: 43.1 µM [cytotoxic, partial curve]"
CC(C(O)c1ccccc1)N(C)CCOC(c1ccccc1)c1ccccc1 (stereo not given),–,"inconclusive: 23.9 µM [cytotoxic, single point]"
CCOC(=O)NNc1ccc(N(CC)CC(C)O)nn1 (stereo not given),inactive: -2.14%,–
CCc1ccc(C(c2ccc(CC)cc2)C(Cl)Cl)cc1,–,"inconclusive: 44.4 µM [cytotoxic, partial curve, poor fit]"
O=C(Nc1ccc(Cl)c(Cl)c1)c1cc(Cl)cc(Cl)c1O,–,active: 19.5 µM
Nc1ccc([N+](=O)[O-])cc1O,–,"inconclusive: 0.195 µM [cytotoxic, full curve, poor fit]"
Cc1ccc(O)c(-n2nc3ccccc3n2)c1,–,"inconclusive: 61.2 µM [cytotoxic, single point]"
C[C@H]1C[C@H](O)c2ccsc2S1(=O)=O,–,"inconclusive: 6.01 µM [cytotoxic, partial curve, poor fit]"
